{"source": "PubChem BioAssay AID894", "about": "(National Center for Advancing Translational Sciences (NCATS), 2007)", "note": "Values joined by “and” are separate entries in the source; they are usually repeats but may differ in a detail not shown here. Equal entries are not always repeated. Hit rate of the full screen: of about 150,000 compounds, about 6,500 (4.3%) were called active. The shares of active, inactive and inconclusive entries below differ from those in the screen. Calls come from the whole dose curve; as a rule, active = well fitted inhibition curve with a large enough effect (not every such curve was filed as active); inconclusive = small, poorly fitted or top-dose-only effect, or another doubt; inactive = no such curve, though single readings can be large or run the other way. Potencies of inconclusive entries are left out as doubtful fits. More than one record can exist for a structure, and the calls need not agree. % is set by controls: 0 for no effect and ±100 for the full control effect; potency is the fitted concentration of half-maximal effect; tags give direction and shape of the fitted curve.", "data": [{"biological_target": "15-hydroxyprostaglandin dehydrogenase [NAD(+)] (Homo sapiens) (UniProt P15428)", "sequence (P15428 whole entry, looked up)": "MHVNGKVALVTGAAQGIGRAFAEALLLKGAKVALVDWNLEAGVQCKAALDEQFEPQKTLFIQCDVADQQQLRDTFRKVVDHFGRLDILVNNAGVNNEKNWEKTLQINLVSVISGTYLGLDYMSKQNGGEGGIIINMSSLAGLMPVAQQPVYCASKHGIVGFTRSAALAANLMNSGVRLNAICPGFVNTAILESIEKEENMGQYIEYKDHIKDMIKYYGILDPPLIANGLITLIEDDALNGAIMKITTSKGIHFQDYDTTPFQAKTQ", "assay": "qHTS Assay for Inhibitors of HPGD (15-Hydroxyprostaglandin Dehydrogenase)", "conditions": "purified HPGD, NADH fluorescence kinetic, PGE2 substrate; activity change, negative = inhibition: stronger effect = lower value", "in_short": "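NADH formation kinetics: reaction with 30 uM PGE2 and 1 mM NAD+ (final), 20 nM enzyme, Tris-HCl pH 8 with Tween 20, after 15 min compound preincubation at room temperature. Fluorescence change, last versus first of five reads.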", "values": [{"smiles": "CCCS(=O)(=O)c1c(S(=O)(=O)CCC)c2c3ccccc3ccn2c1C(=O)OC", "Potency": "inconclusive [inhibitor, single point]"}, {"smiles": "CCOc1cc(N2CCOCC2)c(OCC)cc1NC(=O)c1ccc(OCc2c(C)noc2C)c(OC)c1", "Potency": "inconclusive [inhibitor, single point]"}, {"smiles": "CCOC(=O)c1c(NC(=O)c2cccs2)sc(C)c1CC", "Potency": "inconclusive [inhibitor, partial curve]"}, {"smiles": "CCCOc1ccc(-c2nc(=S)[nH][nH]2)cc1", "Potency": "active: 12.6 µM"}, {"smiles": "O=c1cc(-c2ccc3c(c2)OCO3)oc2ccccc12", "Potency": "inconclusive [inhibitor, single point]"}, {"smiles": "Cc1ccc(C(=O)c2cc([N+](=O)[O-])ccc2N2CCCCC2)cc1", "activity change, negative = inhibition": "inactive: -9.1%"}, {"smiles": "Cc1ccc(OC(=O)NC2CCS(=O)(=O)C2)cc1C", "note": "(centres undefined)", "activity change, negative = inhibition": "inactive: -2.28%"}, {"smiles": "O=C1C2C3C=CC(C4CC34)C2C(=O)N1/N=C/c1ccc(-c2cccc([N+](=O)[O-])c2)o1", "note": "(centres undefined)", "Potency": "active: 12.6 µM"}, {"smiles": "O=C(CN1CCN(C(=O)c2ccco2)CC1)Nc1ccccc1-c1ccccc1", "activity change, negative = inhibition": "inactive: -3.3%"}, {"smiles": "Cc1cccc(NC(c2ccc(O)cc2)c2ccc3ccc(C)nc3c2O)n1", "note": "(centres undefined)", "Potency": "active: 17.8 µM"}, {"smiles": "CC(C)[C@H](NS(=O)(=O)c1cccc(Cl)c1)C(=O)OCC(=O)N1CCN(c2ccccc2)CC1", "activity change, negative = inhibition": "inactive: -9.16%"}, {"smiles": "Cc1ccc(OC(=O)COc2ccccc2)c(-n2nc3ccccc3n2)c1", "Potency": "inconclusive [inhibitor, partial curve, poor fit]"}, {"smiles": "Oc1ccc(Br)cc1-c1cc(-c2ccco2)[nH]n1", "Potency": "inconclusive [inhibitor, single point]"}, {"smiles": "Cc1c(C(=O)NC(C)C)oc2c1-c1[nH]ncc1CC2", "Potency": "inconclusive [inhibitor, partial curve]"}, {"smiles": "Cn1c(=O)c2[nH]c(-c3ccccc3O)nc2n(C)c1=O", "Potency": "inconclusive [inhibitor, single point]"}, {"smiles": "COC(=O)C1(C(=O)OC)C/C=C\\C/C=C\\c2ccccc2C1C[N+](=O)[O-]", "note": "(centres undefined)", "activity change, negative = inhibition": "inactive: -2.38%"}, {"smiles": "Cc1ccccc1OCC(=O)N(Cc1ccc(N(C)C)cc1)C1CCS(=O)(=O)C1", "note": "(centres undefined)", "activity change, negative = inhibition": "inactive: -3.12%"}, {"smiles": "COc1ccc(-c2cc(C(F)F)n3ncc(C(=O)N4CCSCC4)c3n2)cc1", "Potency": "inconclusive [inhibitor, partial curve]"}, {"smiles": "O=C(COC(=O)c1c2ccccc2cc2ccccc12)NCC(F)(F)F", "Potency": "inconclusive [inhibitor, single point]"}, {"smiles": "CCOc1ccc2[nH]c(=O)c(C(c3nnnn3C3CCCCC3)N3CCN(CC)CC3)cc2c1", "note": "(centres undefined)", "Potency": "inconclusive [inhibitor, single point]"}, {"smiles": "CCOC(=O)CC(=O)Nc1nc2ccccc2s1", "activity change, negative = inhibition": "inactive: -5.33%"}, {"smiles": "CC1CCCN(C(=O)c2sc3cc([N+](=O)[O-])ccc3c2Cl)C1", "note": "(centres undefined)", "Potency": "active: 0.447 µM"}, {"smiles": "CCOC(=O)/C(C#N)=C1\\Nc2ccccc2N=C1N(CC(C)C)CC(C)C", "Potency": "inconclusive [inhibitor, partial curve]"}, {"smiles": "Nc1c(C(=O)NC2CC2)c2nc3ccccc3nc2n1-c1ccc2c(c1)OCO2", "Potency": "inconclusive [inhibitor, full curve]"}, {"smiles": "O=C(NCc1ccccc1)N(Cc1cc2cc3c(cc2[nH]c1=O)OCCO3)CC1CCCO1", "note": "(centres undefined)", "Potency": "inconclusive [inhibitor, partial curve]"}, {"smiles": "COc1ccc2nc3c(c([Si](C)(C)C(C)(C)C)c2c1)Cn1c-3cccc1=O", "Potency": "inconclusive [inhibitor, partial curve]"}, {"smiles": "CCN(C(=O)c1ccc2c(OC)n(CC)nc2c1)c1ccc(OC)cc1", "Potency": "inconclusive [inhibitor, partial curve]"}, {"smiles": "O=C(c1cc(-c2cccs2)nc2ccccc12)N1CCN(S(=O)(=O)c2ccccc2)CC1", "Potency": "inconclusive [inhibitor, partial curve]"}, {"smiles": "CCC(CC)c1nnc(NC(=O)C2CC(=O)N(c3ccc4c(c3)OCCO4)C2)s1", "note": "(centres undefined)", "Potency": "inconclusive [inhibitor, partial curve]"}, {"smiles": "Cc1nc2cc(C(=O)OCC(=O)NC(C)C(C)C)ccc2n1-c1ccccc1", "note": "(centres undefined)", "Potency": "inconclusive [inhibitor, partial curve]"}, {"smiles": "Oc1c(Cl)cc(Cl)c(Cl)c1Cc1c(O)c(Cl)cc(Cl)c1Cl", "Potency": "active: 35.5 µM"}, {"smiles": "CC(C)CNC(=O)c1ccc(NC(=O)c2ccccc2[N+](=O)[O-])cc1", "Potency": "inconclusive [inhibitor, full curve]"}, {"smiles": "CN(C)CCNC(=O)c1coc(=O)c(Br)c1", "Potency": "inconclusive [inhibitor, partial curve]"}, {"smiles": "CC1CCN(C(=O)Cn2cc3c(n2)CCCC3)CC1", "activity change, negative = inhibition": "inactive: -5.66%"}, {"smiles": "CC(C)(C)OC(=O)NNC1CC(=O)N(c2ccccc2F)C1=O", "note": "(centres undefined)", "activity change, negative = inhibition": "inactive: -1.28%"}, {"smiles": "CSc1cccc(-n2c(C)cc(C(N)=O)c2C)c1", "Potency": "active: 4.47 µM"}, {"smiles": "CCCc1cc(C(=O)Nc2nccs2)cs1", "Potency": "active: 10 µM"}, {"smiles": "COc1cccc(-n2nnnc2SCC(=O)c2cc(OC)ccc2OC)c1", "Potency": "inconclusive [inhibitor, partial curve]"}, {"smiles": "O=C(Nc1ccccc1)OCc1cc(-c2ccccc2Cl)on1", "Potency": "inconclusive [inhibitor, single point]"}, {"smiles": "CC(=O)C1=C(O)C(=O)N(c2nccs2)C1c1ccc(Br)cc1", "note": "(centres undefined)", "Potency": "inconclusive [inhibitor, partial curve]"}, {"smiles": "CC[C@H](CC[C@H](C)[C@@H]1CC[C@@H]2[C@H]3CC=C4C[C@@H](O)CC[C@]4(C)[C@H]3CC[C@]21C)C(C)C", "activity change, negative = inhibition": "inactive: -3.81%"}, {"smiles": "COC(=O)c1[nH]c2ccc(F)cc2c1NC(=O)CCN1CC(C)OC(C)C1", "note": "(centres undefined)", "Potency": "inconclusive [inhibitor, partial curve]"}, {"smiles": "N#Cc1c(C(F)(F)F)cc(-c2ccccc2Cl)[nH]c1=O", "Potency": "inconclusive [inhibitor, partial curve]"}, {"smiles": "Fc1cccc(-c2cc3nc(-c4ccccc4)cc(N4CCC5(CC4)OCCO5)n3n2)c1", "Potency": "inconclusive [inhibitor, partial curve]"}, {"smiles": "CCOC(=O)CCSc1nc(-c2ccc3c(c2)OCO3)cc(C(F)(F)F)c1C#N", "Potency": "inconclusive [inhibitor, partial curve]"}, {"smiles": "COc1cc2cc(CN(Cc3cccs3)C(=S)Nc3ccc(C)cc3)c(=O)[nH]c2cc1OC", "Potency": "inconclusive [inhibitor, partial curve]"}, {"smiles": "CCCOc1ccc(-c2nn(-c3ccccc3)cc2/C=C2\\SC(N)=NC2=O)cc1", "Potency": "inconclusive [inhibitor, partial curve]"}, {"smiles": "CCC(C)NC(=O)c1cnn2c(C)c3c(nc12)CCCC3", "note": "(centres undefined)", "Potency": "inconclusive [inhibitor, partial curve]"}, {"smiles": "Cc1ccsc1/C=N/n1c(-c2ccco2)n[nH]c1=S", "Potency": "active: 14.1 µM"}, {"smiles": "CCCC(=O)Nc1ccc(-c2nc3cc(C)ccc3o2)cc1", "Potency": "inconclusive [inhibitor, partial curve]"}, {"smiles": "COc1cc(C)c2c(c1C=O)Oc1c(c(C)c(O)c3c1C(O)OC3=O)OC2=O", "note": "(centres undefined)", "Potency": "active: 25.1 µM and active: 20 µM"}, {"smiles": "Cn1c2ccccc2c2c(C(=O)NCCCN3CCCC3=O)cn(C3CCCCC3)c(=O)c21", "Potency": "inconclusive [inhibitor, partial curve]"}, {"smiles": "COc1ccc(C(=O)/C=C/c2ccc(OC)c(O)c2)c(F)c1", "Potency": "active: 31.6 µM"}, {"smiles": "CCN(CC)c1nc(N)c2c(N)n(-c3ccccc3C)c(=S)c(C#N)c2c1C#N", "Potency": "active: 20 µM"}, {"smiles": "O=C(CSCC(=O)N1CCCCC1)Nc1nc(-c2ccc(Cl)s2)cs1", "Potency": "inconclusive [inhibitor, partial curve, poor fit]"}, {"smiles": "COc1ccc(Br)cc1C(=O)NC(=S)Nc1cc(-c2nc3ccccc3[nH]2)ccc1C", "Potency": "active: 28.2 µM"}, {"smiles": "CC(C)c1nc2sc3c(=O)n(N)cnc3c2c2c1COC(C)(C)C2", "Potency": "inconclusive [inhibitor, partial curve]"}, {"smiles": "Cc1ccc(S(=O)(=O)C(C#N)c2nc3ccccc3nc2N2CCCC2)cc1", "note": "(centres undefined)", "Potency": "inconclusive [inhibitor, full curve]"}, {"smiles": "CCC(=O)NCCc1cc2ccc(C)cc2[nH]c1=O", "Potency": "inconclusive [inhibitor, partial curve]"}, {"smiles": "C/C(=C/c1oc2ccc(O)cc2c1[N+](=O)[O-])N(C)C", "activity change, negative = inhibition": "inactive: -11.8%"}, {"smiles": "CCCn1c(SCC(=O)N2N=C3/C(=C/c4ccc(OC)cc4)CCCC3C2c2ccc(OC)cc2)n[nH]c1=O", "note": "(centres undefined)", "Potency": "inconclusive [inhibitor, single point]"}, {"smiles": "COc1ccc(/C=C2/C(=O)ON=C2c2ccccc2)cc1OC", "Potency": "active: 10 µM"}, {"smiles": "C=CCN1C(=O)C(O)(CC(=O)c2ccccc2)c2ccccc21", "note": "(centres undefined)", "activity change, negative = inhibition": "inactive: -2.01%"}, {"smiles": "COC(=O)c1ccc(-c2nc3ccccc3[nH]2)cc1", "Potency": "inconclusive [inhibitor, partial curve]"}, {"smiles": "Cc1ccc(-c2ccc(NC(=O)C3C4C=CC(C4)C3C(=O)O)cc2)o1", "note": "(centres undefined)", "Potency": "active: 20 µM"}, {"smiles": "Cc1cc(C)nc(-n2ncc3c2CC(c2ccccc2)CC3=O)n1", "note": "(centres undefined)", "Potency": "active: 28.2 µM"}, {"smiles": "Cn1c(=O)c2cc(S(=O)(=O)NC(C(=O)NC3CCCCC3)c3ccccc3)ccc2n(C)c1=O", "note": "(centres undefined)", "activity change, negative = inhibition": "inactive: -9.74%"}, {"smiles": "Cc1nn(-c2ccc(F)cc2)c2sc(C(=O)OC3CCOC3=O)cc12", "note": "(centres undefined)", "Potency": "inconclusive [inhibitor, partial curve]"}, {"smiles": "Cc1[nH]c2ccccc2c1C(c1ccccn1)c1c(C)[nH]c2ccccc12", "activity change, negative = inhibition": "inactive: -18.8%"}]}]}
